Consider 172 sequences from article PMC10668032.

Some of the results follow. At the low end of the ranking the order means little.

The target in this test is SIX1 homeodomain (reference allele) (UniProt Q15475). The experiment in a line: universal protein binding microarray. Particulars: Universal all-10-mer PBM (8x60K, AMADID 030236), 300 nM GST-tagged protein, Alexa Fluor 488 anti-GST; buffer, salt, pH and temperature not stated; high values mean tight binding; most listed sequences are background and not binding sites; double strand, one strand shown.
As for CCACGGTC, the binding signal is -0.236 E-score.

Take GCGGACGC: the binding signal is -0.292 E-score.

In the case of AGGCACTC, the binding signal is -0.253 E-score.

With ATTTTACG, the binding signal is -0.137 E-score.

For the sequence CAGATCAG, the binding signal worked out at 0.353 E-score.

Consider AAGGTATA, for which the binding signal came to 0.272 E-score.

As to AGTACGCG, the binding signal is -0.148 E-score.

Take ATGTCCAG: the binding signal is -0.0971 E-score.

Take CCCCGTAC: the binding signal is -0.101 E-score.

As to AAGGGGGG, the binding signal is -0.0262 E-score.

GTCTGTGA: the binding signal worked out at 0.0794 E-score.

For the sequence CACCTTGG, the binding signal worked out at 0.0659 E-score.

Regarding CAATATTG, the binding signal came to 0.0839 E-score.

Regarding ATTGCGGA, the binding signal worked out at 0.254 E-score.

Consider CGCAATCA, for which the binding signal was -0.104 E-score.

As for GTGTTTCA, the binding signal was -0.0611 E-score.

AAGGAGTA: the binding signal is 0.0359 E-score.

As for AATGGGGC, the binding signal is -0.0701 E-score.

AAGAAGAC: the binding signal is -0.0165 E-score.

For the sequence CAAACAGG, the binding signal is -0.00224 E-score.

As for GTATTACA, the binding signal was 0.227 E-score.

Consider GCAATGCC, for which the binding signal is -0.0701 E-score.

Take TACAAATA: the binding signal came to 0.0624 E-score.

In the case of AATCGCAA, the binding signal is -0.0444 E-score.

In the case of AACTCCCG, the binding signal is 0.0855 E-score.

For the sequence ACCTTGTC, the binding signal is -0.0473 E-score.

On to ATCTAATG, for which the binding signal was found to be 0.125 E-score.

Take CAGGCACG: the binding signal is -0.226 E-score.

Turning to GCAATGAA, the binding signal is -0.106 E-score.

With AGAGGAAA, the binding signal is -0.104 E-score.

Regarding AATCCTCC, the binding signal was 0.184 E-score.

On to TGTAGAAA, for which the binding signal was -0.0351 E-score.

In the case of GCAGCCTA, the binding signal was -0.199 E-score.

Consider ACTAGAAC, for which the binding signal was -0.127 E-score.

Turning to CACGCGGG, the binding signal was -0.0634 E-score.

Turning to CACGACGA, the binding signal is -0.0998 E-score.

Consider CTGCGCAC, for which the binding signal was -0.236 E-score.

As to CGGCCGGA, the binding signal is -0.14 E-score.

For GCACGCTA, the binding signal was found to be 0.026 E-score.

In the case of CAGGACCG, the binding signal is -0.0649 E-score.

As to AAAACGCC, the binding signal is -0.203 E-score.

For the sequence CTCTGAAC, the binding signal was -0.254 E-score.

Turning to ATGCCGCA, the binding signal amounted to 0.0344 E-score.

Turning to ATGGTCGG, the binding signal amounted to 0.0279 E-score.

For CGAGGCTC, the binding signal is -0.0189 E-score.

For the sequence AGATTCGA, the binding signal was -0.0896 E-score.

On to CCTCACAG, for which the binding signal is -0.0445 E-score.

Turning to CTTTGAGA, the binding signal was -0.021 E-score.

Consider ATCCTGAA, for which the binding signal was determined as 0.218 E-score.

In the case of ATTCTAGG, the binding signal was -0.0311 E-score.

In the case of CGAATGAA, the binding signal is -0.167 E-score.

On to GTGGTGTA, for which the binding signal was found to be 0.286 E-score.

Turning to ACGCGTAT, the binding signal was determined as 0.327 E-score.

For GGATCGAC, the binding signal was determined as 0.297 E-score.

CACTATAA: the binding signal was -0.0569 E-score.

Turning to GGCCACGA, the binding signal was -0.202 E-score.

GAGATTGC: the binding signal is -0.0337 E-score.

On to CTACTGGA, for which the binding signal was -0.00869 E-score.

Take CGGAGAAA: the binding signal is -0.0585 E-score.

Regarding CCGCAAGG, the binding signal was -0.104 E-score.

Turning to CAGAACCG, the binding signal is -0.0472 E-score.

With ACCGTCAC, the binding signal was -0.121 E-score.

For ACACCCTC, the binding signal was determined as 0.306 E-score.

With ACTGACTA, the binding signal was -0.159 E-score.

As to CCACTTCA, the binding signal was found to be 0.0318 E-score.

With AATAGACC, the binding signal was -0.0377 E-score.

Turning to GCAGTTAC, the binding signal is -0.0131 E-score.

As for CACCCGTG, the binding signal is 0.0327 E-score.

Take GACAGTCC: the binding signal is -0.203 E-score.

ATACACAT: the binding signal came out at 0.289 E-score.

On to AGCGCCAA, for which the binding signal was -0.124 E-score.

For the sequence CCTTATAA, the binding signal is 0.124 E-score.

As to CACCTTGA, the binding signal was found to be 0.0639 E-score.

Take CAGGTCAA: the binding signal was -0.282 E-score.

In the case of GTGACCGA, the binding signal was -0.155 E-score.

Turning to CTCCAGGA, the binding signal was 0.161 E-score.

For CAATAACG, the binding signal was determined as 0.0172 E-score.

Consider TAGAGTAA, for which the binding signal was 0.0878 E-score.

As for AAAGTGTG, the binding signal was -0.14 E-score.

In the case of GCTACTTA, the binding signal is -0.19 E-score.

On to CCGACGAA, for which the binding signal was -0.0371 E-score.

With AGCTTGCC, the binding signal is -0.168 E-score.

Turning to ATGCGGAC, the binding signal came out at 0.0869 E-score.

With GACCATTA, the binding signal is -0.146 E-score.

Consider AACCCAAT, for which the binding signal is -0.0919 E-score.

ACTACCAC: the binding signal was -0.0152 E-score.

Consider ATGCACAC, for which the binding signal was 0.158 E-score.

In the case of ATCTCAGA, the binding signal worked out at 0.31 E-score.

Regarding ACACTTAA, the binding signal was -0.0556 E-score.

For CATCGCTC, the binding signal is -0.0961 E-score.

Take AGCAACCC: the binding signal is -0.193 E-score.

Take GCACAGAC: the binding signal was -0.0294 E-score.

With AGTTCCAT, the binding signal was 0.0254 E-score.

With ACCCCCCC, the binding signal was 0.088 E-score.

ATATCGGA: the binding signal was found to be 0.427 E-score.

For the sequence AGCTAATG, the binding signal was -0.196 E-score.

Take AGGGTGAA: the binding signal was -0.142 E-score.

Turning to GGGTTTGA, the binding signal stood at 0.0715 E-score.

GGGTACGA: the binding signal is 0.08 E-score.

As to ATTGCGAG, the binding signal was 0.141 E-score.

As for CTTTGAGC, the binding signal was -0.13 E-score.

Regarding AATACGCC, the binding signal was 0.188 E-score.

As for ATGACATG, the binding signal turned out to be 0.0904 E-score.

Take CCGGCTGC: the binding signal was -0.0273 E-score.

GGGCCAGA: the binding signal was determined as 0.0366 E-score.

AGCGATAA: the binding signal is -0.0219 E-score.

With GAGTCTCA, the binding signal was -0.0837 E-score.

For AGTTCGAC, the binding signal is -0.295 E-score.

Regarding ATACCATA, the binding signal came to 0.394 E-score.

In the case of ACCGCGGC, the binding signal is -0.0758 E-score.

In the case of CTACGTGC, the binding signal is -0.141 E-score.

Take CTGTAAAA: the binding signal was -0.237 E-score.

Turning to ATCTTTCC, the binding signal turned out to be 0.137 E-score.

In the case of GCATGTCC, the binding signal is -0.155 E-score.

For AGCTACAG, the binding signal is -0.196 E-score.

With CGCGGGGA, the binding signal was 0.124 E-score.

Turning to GAGCCTAA, the binding signal is -0.171 E-score.

As for AACGCAAC, the binding signal is -0.212 E-score.

In the case of CCAGATCC, the binding signal is 0.332 E-score.

For the sequence ACTAGTGG, the binding signal was -0.0504 E-score.

As to AGGTACCA, the binding signal was -0.228 E-score.

With GTCAACAC, the binding signal was -0.0268 E-score.

Turning to GTGAAGCA, the binding signal is -0.164 E-score.

CCTTTGTC: the binding signal was -0.177 E-score.

With CCCTTTCC, the binding signal is -0.0882 E-score.

With AGCTGAGG, the binding signal was -0.224 E-score.

On to CTAAATTC, for which the binding signal was -0.117 E-score.

As to GCCACTCC, the binding signal was -0.0445 E-score.

Take CTGCTCGC: the binding signal was -0.219 E-score.

As to ATCTACCG, the binding signal was found to be 0.232 E-score.

As for CTACATTA, the binding signal is -0.135 E-score.

On to CGTCCCTA, for which the binding signal is -0.0137 E-score.

Take AAATCCTA: the binding signal was -0.114 E-score.

On to AATCTTAG, for which the binding signal is -0.239 E-score.

Turning to AGCTGGAT, the binding signal is 0.248 E-score.

In the case of CTCGTAGC, the binding signal is -0.11 E-score.

TACCGAGA: the binding signal was 0.132 E-score.

Consider CTTGAAGC, for which the binding signal was -0.239 E-score.

Turning to CAGAAAGG, the binding signal was -0.0337 E-score.

Turning to CTGCAGAC, the binding signal was -0.166 E-score.

Turning to AGCGCGAC, the binding signal was -0.148 E-score.

In the case of ACGAATGA, the binding signal stood at 0.145 E-score.

With AATATCCT, the binding signal is 0.282 E-score.

For the sequence CCCGAGGG, the binding signal is -0.107 E-score.

As to GACCCAGA, the binding signal amounted to 0.211 E-score.

For the sequence CGCACGTA, the binding signal worked out at 0.111 E-score.

With CTACAAAA, the binding signal was -0.148 E-score.

On to GAGGTCGA, for which the binding signal was -0.154 E-score.

As for CCTTATAG, the binding signal is -0.0679 E-score.

As to AGTCCTGG, the binding signal was -0.121 E-score.

For CAGCTACG, the binding signal is -0.237 E-score.

As for ATCAGCGA, the binding signal was found to be 0.103 E-score.

Take CCCATACC: the binding signal turned out to be 0.15 E-score.

In the case of CATCAAAA, the binding signal is -0.245 E-score.

For CCAACGCC, the binding signal was -0.0612 E-score.

For the sequence ATGGAGTA, the binding signal came to 0.201 E-score.

Consider GGGGGCAC, for which the binding signal was -0.19 E-score.

As for CACCACTC, the binding signal was -0.0348 E-score.

In the case of AGCAAGCC, the binding signal is -0.287 E-score.

Take CCTTCGCG: the binding signal is -0.157 E-score.

For the sequence ACAAGAAT, the binding signal is -0.0968 E-score.

In the case of AACCACAG, the binding signal was -0.089 E-score.

For AAGAGACA, the binding signal was found to be 0.00979 E-score.

On to AGGATATG, for which the binding signal is 0.421 E-score.

As to ACCCCCAA, the binding signal was 0.135 E-score.

For CGAATATC, the binding signal is 0.308 E-score.

For ATGACAAC, the binding signal was -0.0918 E-score.

Consider ACAATAAA, for which the binding signal was -0.155 E-score.

Take GTGAATTA: the binding signal was -0.198 E-score.

As for GAACTACC, the binding signal was -0.0624 E-score.

In the case of CGACCTAG, the binding signal was determined as 0.0281 E-score.

On to ACGTGAAA, for which the binding signal is -0.0853 E-score.
